Consider 28 molecules from patent US10299477B2 (priority 2015, dated 2019).

Read-outs that look alike come from different tables or passages of the source.

For one assay, the system named is Magnaporthe grisea. The format is in vivo. To be noted: for Test A (control value class, blast on rice): in vivo.
The subject of another assay is Phytophthora infestans. The assay is classed as in vivo. As to conditions: for Test F (control value class): 250 ppm spray; for Test F control value: 250 ppm sprayed before inoculation; for Test F (control value class, late blight on tomato): 250 ppm, sprayed 2.5 ml/pot before inoculation.
[1] abbreviates: Blast on rice, control value=100{1-(n/3)}.
Where [2] appears, read: Late blight on tomato, 2.5 ml/pot, evaluated 5-10 days after inoculation.
The mark [3] stands for this setting: Late blight on tomato, 5-10 days after inoculation.
Setting [4] is: rice blast, Magnaporthe grisea, 250 ppm spray.
The mark [5] stands for this setting: late blight on tomato, Phytophthora infestans, 5-10 days after inoculation.
Setting [6] is: evaluated 5-10 days after inoculation.

As to `CCn1c(-c2c(F)cc(F)cc2F)c(-c2cccc(OCOC)c2Cl)cc(Cl)c1=O` [Compound 811], in the assay with Magnaporthe grisea (setting [1]), the “Test A (control value class)” value is recorded as “H (H shows more than 50% of control values)”. For the same molecule, in the assay with Phytophthora infestans (setting [2]), the “Test F (control value class)” value was “L (L shows 50% or less of control values)”.

Take `CCn1c(-c2c(F)cccc2Br)c(-c2cc(OC)cc(OC)c2Cl)ccc1=O` [Compound 177]: the “Test A control value” in the assay on Magnaporthe grisea (Blast on rice) is recorded as “H (H shows more than 50% of control values)”. In the assay with Phytophthora infestans (setting [3]), the “Test F control value” is “L (L shows 50% or less of control values)”.

For `CCn1c(-c2c(F)cccc2F)c(-c2cc(F)ccc2F)cc(C)c1=O` [Compound 497], the “Test A (control value class)” value with Magnaporthe grisea (setting [4]) is given as “H (H shows more than 50% of control values)”. In addition, in the assay on Phytophthora infestans (setting [5]), the “Test F (control value class)” value is reported as “L (L shows 50% or less of control values)”.

Take `CCOc1ccc(Cl)c(-c2ccc(=O)n(CC)c2-c2c(F)cccc2F)c1` [Compound 99]: in the assay on Magnaporthe grisea (Blast on rice), the “Test A control value” is “H (H shows more than 50% of control values)”. Besides, the “Test F control value” with Phytophthora infestans (setting [3]) is recorded as “L (L shows 50% or less of control values)”.

For the molecule `CCN1C(=O)CCC(c2cc(OC)cc(OC)c2)=C1c1c(F)cccc1Br` [Compound 174], the “Test A control value” in the assay with Magnaporthe grisea (Blast on rice) was “H (H shows more than 50% of control values)”. Besides, in the assay on Phytophthora infestans (setting [3]), the “Test F control value” is “L (L shows 50% or less of control values)”.

With `Cn1c(-c2c(F)cc(F)cc2F)c(-c2cc(F)cc(F)c2)cc(Cl)c1=O` [Compound 804], in the assay on Magnaporthe grisea (setting [1]), the “Test A (control value class)” value is on record as “H (H shows more than 50% of control values)”. Also, in the assay on Phytophthora infestans (setting [2]), the “Test F (control value class)” value is recorded as “L (L shows 50% or less of control values)”.

As for `CCn1c(-c2c(F)cc(F)cc2F)c(-c2ccccc2Cl)cc(Cl)c1=O` [Compound 421], the “Test A (control value class)” value in the assay on Magnaporthe grisea (setting [4]) is on record as “H (H shows more than 50% of control values)”. The “Test F (control value class)” value in the assay with Phytophthora infestans (setting [5]) is reported as “L (L shows 50% or less of control values)”.

Regarding `O=c1c(Cl)cc(-c2cccc(F)c2Cl)c(-c2c(F)cccc2F)n1CC(F)F` [Compound 511], the “Test A (control value class)” value with Magnaporthe grisea (setting [4]) is “H (H shows more than 50% of control values)”. In the assay with Phytophthora infestans (setting [5]), the “Test F (control value class)” value is listed as “L (L shows 50% or less of control values)”.

Consider `Cn1c(-c2c(F)cccc2F)c(-c2cc(Cl)ccc2F)ccc1=O` [Compound 524], for which the “Test A (control value class)” value in the assay with Magnaporthe grisea (setting [4]) is “H (H shows more than 50% of control values)”. Besides, in the assay with Phytophthora infestans (setting [5]), the “Test F (control value class)” value is “L (L shows 50% or less of control values)”.

Take `COc1ccc(Cl)c(-c2ccc(=O)n(CC#N)c2-c2c(F)cccc2F)c1` [Compound 460]: the “Test A (control value class)” value with Magnaporthe grisea (setting [4]) is recorded as “H (H shows more than 50% of control values)”. Moreover, the “Test F (control value class)” value with Phytophthora infestans (setting [5]) is listed as “L (L shows 50% or less of control values)”.

Regarding `O=C1CCC(c2cc(F)ccc2Cl)=C(c2c(F)cccc2F)N1CC(F)F` [Compound 388], the “Test A (control value class)” value in the assay with Magnaporthe grisea (setting [4]) is on record as “H (H shows more than 50% of control values)”. The “Test F (control value class)” value in the assay with Phytophthora infestans (setting [5]) is given as “L (L shows 50% or less of control values)”.

As for `COc1ccc(Cl)c(-c2cc(Cl)c(=O)n(CC(F)(F)F)c2-c2c(F)cccc2F)c1` [Compound 410], the “Test A (control value class)” value in the assay with Magnaporthe grisea (setting [4]) is “H (H shows more than 50% of control values)”. The “Test F (control value class)” value in the assay on Phytophthora infestans (setting [5]) is “L (L shows 50% or less of control values)”.

As to `Cc1cc(-c2ccccc2F)c(-c2c(F)cc(F)cc2F)n(C)c1=O` [Compound 571], in the assay on Magnaporthe grisea, the “Test A (control value class, blast on rice)” value is given as “H (H shows more than 50% of control values)”. Moreover, the “Test F (control value class, late blight on tomato)” value in the assay with Phytophthora infestans (setting [6]) is “H (H shows more than 50% of control values)”.

Take `CCn1c(-c2c(F)cccc2F)c(-c2cccc(F)c2F)cc(C)c1=O` [Compound 534]: in the assay with Magnaporthe grisea (setting [4]), the “Test A (control value class)” value is “H (H shows more than 50% of control values)”. Moreover, in the assay with Phytophthora infestans (setting [5]), the “Test F (control value class)” value is on record as “L (L shows 50% or less of control values)”.

For `CCn1c(-c2c(F)cccc2F)c(-c2cc(F)cc(F)c2F)cc(Br)c1=O` [Compound 441], in the assay on Magnaporthe grisea (setting [4]), the “Test A (control value class)” value was “H (H shows more than 50% of control values)”. For the same molecule, the “Test F (control value class)” value in the assay with Phytophthora infestans (setting [5]) is “L (L shows 50% or less of control values)”.

In the case of `CCOc1cccc(-c2ccc(=O)n(CC)c2-c2c(F)cccc2F)c1` [Compound 103], the “Test A control value” with Magnaporthe grisea (Blast on rice) is recorded as “H (H shows more than 50% of control values)”. Besides, in the assay with Phytophthora infestans (setting [3]), the “Test F control value” was “L (L shows 50% or less of control values)”.

On to `CCn1c(-c2c(F)cc(OC)cc2F)c(-c2cc(F)ccc2Cl)cc(Cl)c1=O` [Compound 386], for which the “Test A (control value class)” value in the assay with Magnaporthe grisea (setting [4]) is reported as “H (H shows more than 50% of control values)”. For the same molecule, the “Test F (control value class)” value with Phytophthora infestans (setting [5]) is reported as “L (L shows 50% or less of control values)”.

For `Cn1c(-c2c(F)cccc2F)c(-c2cc(F)cc(F)c2F)cc(Cl)c1=O` [Compound 442], the “Test A (control value class)” value with Magnaporthe grisea (setting [4]) is listed as “H (H shows more than 50% of control values)”. The “Test F (control value class)” value with Phytophthora infestans (setting [5]) was “L (L shows 50% or less of control values)”.

In the case of `Cn1c(-c2c(F)cccc2F)c(-c2cccc(F)c2)cc(Cl)c1=O` [Compound 169], the “Test A control value” in the assay with Magnaporthe grisea (Blast on rice) was “H (H shows more than 50% of control values)”. The “Test F control value” in the assay on Phytophthora infestans (setting [3]) is reported as “L (L shows 50% or less of control values)”.

For `CCOc1cc(F)c(-c2c(-c3ccc(F)cc3Cl)cc(Cl)c(=O)n2CC)c(F)c1` [Compound 595], the “Test A (control value class, blast on rice)” value with Magnaporthe grisea is “H (H shows more than 50% of control values)”. In addition, the “Test F (control value class, late blight on tomato)” value with Phytophthora infestans (setting [6]) is recorded as “L (L shows 50% or less of control values)”.

As for `COc1ccc(Cl)c(-c2cc(Cl)c(=O)n(CC#N)c2-c2c(F)cccc2F)c1` [Compound 463], the “Test A (control value class)” value in the assay on Magnaporthe grisea (setting [4]) was “H (H shows more than 50% of control values)”. The “Test F (control value class)” value in the assay with Phytophthora infestans (setting [5]) was “L (L shows 50% or less of control values)”.

Consider `CCn1c(-c2c(F)cc(OC)cc2F)c(-c2cc(F)cc(F)c2F)cc(Cl)c1=O` [Compound 546], for which, in the assay with Magnaporthe grisea (setting [4]), the “Test A (control value class)” value is listed as “H (H shows more than 50% of control values)”. Moreover, the “Test F (control value class)” value with Phytophthora infestans (setting [5]) was “L (L shows 50% or less of control values)”.

In the case of `COc1cc(F)c(-c2c(-c3cc(F)cc(F)c3F)cc(Cl)c(=O)n2C)c(F)c1` [Compound 549], the “Test A (control value class)” value with Magnaporthe grisea (setting [4]) is “H (H shows more than 50% of control values)”. For the same molecule, in the assay with Phytophthora infestans (setting [5]), the “Test F (control value class)” value was “L (L shows 50% or less of control values)”.

Regarding `Cc1ccccc1-c1cc(Cl)c(=O)n(C)c1-c1c(F)cccc1F` [Compound 181], the “Test A control value” in the assay with Magnaporthe grisea (Blast on rice) is given as “H (H shows more than 50% of control values)”. For the same molecule, the “Test F control value” in the assay on Phytophthora infestans (setting [3]) is on record as “L (L shows 50% or less of control values)”.

Regarding `CCn1c(-c2c(F)cccc2F)c(-c2cc(Cl)ccc2Cl)ccc1=O` [Compound 444], the “Test A (control value class)” value in the assay on Magnaporthe grisea (setting [4]) is “H (H shows more than 50% of control values)”. In addition, the “Test F (control value class)” value in the assay with Phytophthora infestans (setting [5]) is recorded as “L (L shows 50% or less of control values)”.

Regarding `O=c1ccc(-c2cc(Cl)ccc2Cl)c(-c2c(F)cccc2F)n1CC(F)F` [Compound 448], in the assay with Magnaporthe grisea (setting [4]), the “Test A (control value class)” value is listed as “H (H shows more than 50% of control values)”. In the assay on Phytophthora infestans (setting [5]), the “Test F (control value class)” value was “L (L shows 50% or less of control values)”.

As to `CCn1c(-c2c(F)cccc2F)c(-c2cc(F)cc(F)c2Cl)ccc1=O` [Compound 551], the “Test A (control value class)” value with Magnaporthe grisea (setting [4]) was “H (H shows more than 50% of control values)”. In addition, the “Test F (control value class)” value in the assay on Phytophthora infestans (setting [5]) is “L (L shows 50% or less of control values)”.

Turning to `CCn1c(-c2c(F)cc(F)cc2F)c(-c2cccc(F)c2F)cc(Cl)c1=O` [Compound 566], the “Test A (control value class, blast on rice)” value with Magnaporthe grisea is recorded as “H (H shows more than 50% of control values)”. Moreover, the “Test F (control value class, late blight on tomato)” value in the assay with Phytophthora infestans (setting [6]) is “L (L shows 50% or less of control values)”.
